Some of the results follow.
Legend:
HSkMC = human skeletal muscle cells; test: cytotoxicity call (relative viability < 0.9); settings: 10 µM
HepG2 = test: cytotoxicity call (relative viability < 0.9); settings: 10 µM
S. aureus RN4220 = test: growth inhibition call (relative growth <= 0.2); settings: 50 µM

Row | SMILES | cytotoxicity call (HSkMC) | cytotoxicity call (HepG2) | growth inhibition call (S. aureus RN4220)
1 | C[C@@H]1CN([C@@H](C)CO)C(=O)c2cc(NS(=O)(=O)c3cn(C)cn3)ccc2O[C@H]1CN(C)Cc1ccc(C(=O)Nc2ccccc2N)cc1 | inactive | inactive | inactive
2 | C[C@H](O)C#Cc1ccc2c(c1)O[C@H](CN(C)C(=O)C1CCCCC1)[C@H](C)CN([C@@H](C)CO)S2(=O)=O | inactive | inactive | inactive
3 | OC[C@@H]1CN(CCN2CCOCC2)C[C@H](n2cnc3c(NC4CCC4)ncnc32)O1 | inactive | inactive | inactive
4 | C[C@@H]1CN([C@@H](C)CO)C(=O)c2cc(NS(C)(=O)=O)ccc2O[C@@H](C)CCCCO[C@H]1CN(C)Cc1ccncc1 | inactive | inactive | inactive
5 | C[C@@H]1CN([C@H](C)CO)C(=O)c2cc(NC(=O)Nc3ccccc3)ccc2O[C@@H]1CN(C)Cc1ccc(Oc2ccccc2)cc1 | active | active | inactive
6 | COc1ccc(S(=O)(=O)Nc2ccc3c(c2)C(=O)N([C@H](C)CO)C[C@H](C)[C@@H](CN(C)Cc2ccc(Cl)c(Cl)c2)OCCCC[C@H](C)O3)cc1 | active | active | inactive
7 | C[C@H]1CN([C@@H](C)CO)C(=O)c2cc(NC(=O)Nc3ccc(C(F)(F)F)cc3)ccc2O[C@H]1CN(C)C(=O)Nc1ccc2c(c1)OCO2 | inactive | inactive | inactive
8 | C[C@@H]1CN([C@@H](C)CO)C(=O)c2cccc(NS(=O)(=O)c3ccc(F)cc3)c2O[C@H]1CN(C)CC1CC1 | inactive | inactive | inactive
9 | COC(=O)CC[C@H]1CCCNC1 | inactive | inactive | inactive
10 | O=c1oc2c(O)c(O)cc3c(=O)oc4c(O)c(O)cc1c4c23 | inactive | active | inactive
11 | Cc1ccc(S(=O)(=O)N(C)C[C@H]2OCCCC[C@H](C)Oc3ccc(NS(C)(=O)=O)cc3C(=O)N([C@@H](C)CO)C[C@H]2C)cc1 | inactive | inactive | inactive
12 | COc1ccc(NC(=O)N(C)C[C@H]2Oc3ccc(NS(=O)(=O)c4c(C)noc4C)cc3CC(=O)N([C@@H](C)CO)C[C@@H]2C)cc1 | inactive | inactive | inactive
13 | COc1ccc(CN(C)C[C@H]2OCCCC[C@@H](C)Oc3ccc(NC(=O)Cc4ccccc4)cc3C(=O)N([C@H](C)CO)C[C@@H]2C)cc1 | inactive | inactive | inactive
14 | C[C@@H]1CCCCO[C@H](CN(C)C(=O)C2CCCCC2)[C@@H](C)CN([C@H](C)CO)C(=O)c2cc(NS(=O)(=O)c3ccc(F)cc3)ccc2O1 | inactive | inactive | inactive
15 | Cc1ccc(S(=O)(=O)Nc2cccc3c2O[C@H](CN(C)C(=O)NC(C)C)[C@H](C)CN([C@H](C)CO)C3=O)cc1 | inactive | inactive | inactive
16 | C[C@@H]1CCCCO[C@H](CN(C)C(=O)Nc2ccc(C(F)(F)F)cc2)[C@@H](C)CN([C@H](C)CO)C(=O)c2cc(NS(C)(=O)=O)ccc2O1 | inactive | inactive | inactive
17 | COc1ccc(S(=O)(=O)Nc2ccc3c(c2)C(=O)N([C@@H](C)CO)C[C@@H](C)[C@H](CN(C)C(=O)Nc2cccc4ccccc24)O3)cc1 | inactive | inactive | inactive
18 | COCC(=O)Nc1ccc2c(c1)OC[C@@H](C)N(C(=O)c1ccccc1F)C[C@H](C)[C@H](OC)CN(C)C2=O | inactive | inactive | inactive
19 | C[C@H]1CN([C@@H](C)CO)C(=O)c2cc(NC(=O)Cn3cnnn3)ccc2O[C@H]1CN(C)S(C)(=O)=O | inactive | inactive | inactive
20 | C[C@H](CO)N1C[C@H](C)[C@H](CN(C)S(C)(=O)=O)Oc2c(NC(=O)c3nc4ccccc4s3)cccc2C1=O | inactive | inactive | inactive
21 | Cc1noc(C)c1NC(=O)N(C)C[C@@H]1Oc2ccc(NC(=O)C3CC3)cc2CC(=O)N([C@H](C)CO)C[C@H]1C | inactive | inactive | inactive
22 | Cc1ccc(S(=O)(=O)N(C)C[C@H]2Oc3c(NC(=O)c4cc(C)nn4C)cccc3C(=O)N([C@@H](C)CO)C[C@H]2C)cc1 | inactive | inactive | inactive
23 | COC(=O)CSc1nc(=O)c(C)n[nH]1 | inactive | inactive | inactive
24 | C[C@H]1CN([C@@H](C)CO)C(=O)c2cc(NC(=O)C3CC3)ccc2O[C@H]1CN(C)S(=O)(=O)c1ccccc1 | inactive | inactive | inactive
25 | COC(=O)c1c2oc(c1C(=O)OC)C(=O)N[C@H](Cc1ccccc1)Cn1cc(nn1)[C@@H](Cc1ccccc1)NC(=O)N[C@@H](COC(=O)NCCCCCC(=O)NO)CC2 | inactive | inactive | inactive
